# Laboratory results reported in a collection of fitness landscapes (doi:10.1126/science.1257360).
# The other results are listed elsewhere or left out.
# B1: PhoQ; a variant is named by its letters at X, in order, P23837 (parent)
# chain: MKKLLRLFFPLSLRVRFLLATAAVVLVLSLAYGMVALIGYSVSFDKTTFRLLRGESNLFYTLAKWENNKLHVELPENIDKQSPTMTLIYDENGQLLWAQRDVPWLMKMIQPDWLKSNGFHEIEADVNDTSLLLSGDHSIQQQLQEVREDDDDAEMTHSVAVNVYPATSRMPKLTIVVVDTIPVELKSSYMVWSWFIYVLSANLLLVIPLLWVAAWWSLRPIEALAKEVRELEEHNRELLNPATTRELTSLVRNLNRLLKSERERYDKYRTTLTDLTHSLKTPLXXLQXXLRSLRSEKMSVSDAEPVMLEQISRISQQIGYYLHRASMRGGTLLSRELHPVAPLLDNLTSALNKVYQRKGVNISLDISPEISFVGEQNDFVEVMGNVLDNACKYCLEFVEISARQTDEHLYIVVEDDGPGIPLSKREVIFDRGQRVDTLRPGQGVGLAVAREITEQYEGKIVAGESMLGGARMEVIFGRQHSAPKDE
# Variants of: B1
# Test: enrichment ratio after two sorts for PhoP signalling (ratio (wild type AVST 3.29)); higher = more functional
# Settings: with PhoP (E. coli)
row,Variant,enrichment ratio
1,FTYM,≤ 0.25
2,IIHH,≤ 0.25
3,SPDA,≤ 0.25
4,TGHK,≤ 0.25
5,KNGV,≤ 0.25
6,YVFM,≤ 0.25
7,VSSI,6.02
8,EGLI,3.9
9,YATR,≤ 0.25
10,FWRI,≤ 0.25
11,IFGY,≤ 0.25
12,PTEW,≤ 0.25
13,NAKH,≤ 0.25
14,GGKA,≤ 0.25
15,TPQW,≤ 0.25
16,MAWR,≤ 0.25
17,DYRM,≤ 0.25
18,SWRG,≤ 0.25
19,FELE,20.4
20,GMAH,≤ 0.25
21,HNVK,≤ 0.25
22,PDYH,≤ 0.25
23,LHMI,≤ 0.25
24,LEIT,≤ 0.25
25,YTAE,≤ 0.25

row,Variant,enrichment ratio
1,QAHW,≤ 0.25
2,QKPV,≤ 0.25
3,QLIN,≤ 0.25
4,TTLD,2.04
5,SECQ,11.4
6,WWRG,≤ 0.25
7,KSER,≤ 0.25
8,RINE,≤ 0.25
9,RRVW,≤ 0.25
10,LDQN,≤ 0.25
11,YGPD,≤ 0.25
12,DDCR,≤ 0.25
13,ILQK,1.02
14,SATP,≤ 0.25
15,DLTS,≤ 0.25
16,RPNP,≤ 0.25
17,LLDM,≤ 0.25
18,YTGM,≤ 0.25
19,TYQF,≤ 0.25
20,WPGW,≤ 0.25
21,VQPA,≤ 0.25
22,EPCD,≤ 0.25
23,STIW,1.22
24,SNRK,≤ 0.25
25,VRCL,≤ 0.25

row,Variant,enrichment ratio
1,HYVL,0.873
2,FAMD,≤ 0.25
3,FTNT,≤ 0.25
4,QSTI,1.77
5,GMMY,≤ 0.25
6,DWVD,≤ 0.25
7,YDPQ,≤ 0.25
8,AHII,≤ 0.25
9,IATR,≤ 0.25
10,AWKH,≤ 0.25
11,AKDP,≤ 0.25
12,ENSI,≤ 0.25
13,HPLQ,≤ 0.25
14,MYTW,≤ 0.25
15,TQFT,2.65
16,STSY,11.6
17,RGCC,≤ 0.25
18,SYAA,≤ 0.25
19,GPLE,≤ 0.25
20,QHYT,≤ 0.25
21,MTLL,10.3
22,IILR,≤ 0.25
23,NYFV,≤ 0.25
24,TQMQ,24.2
25,PPQF,≤ 0.25

row,Variant,enrichment ratio
1,MYEA,≤ 0.25
2,MDKV,≤ 0.25
3,QDIH,≤ 0.25
4,EVRP,≤ 0.25
5,PFKS,≤ 0.25
6,VHSH,≤ 0.25
7,ISED,≤ 0.25
8,PEEM,≤ 0.25
9,QQVV,≤ 0.25
10,FFIY,≤ 0.25
11,AQKA,≤ 0.25
12,THDM,≤ 0.25
13,FQLT,0.814
14,ETAI,≤ 0.25
15,PMPA,≤ 0.25
16,AGPD,≤ 0.25
17,RPWR,≤ 0.25
18,DQNS,≤ 0.25
19,HYVW,≤ 0.25
20,PALL,≤ 0.25
21,FVPP,≤ 0.25
22,TMGC,11.3
23,MERF,≤ 0.25
24,GLKP,≤ 0.25
25,QRQP,≤ 0.25

row,Variant,enrichment ratio
1,DMQA,≤ 0.25
2,TRKT,≤ 0.25
3,AMMD,≤ 0.25
4,NAKF,≤ 0.25
5,RDQV,≤ 0.25
6,VPYY,≤ 0.25
7,HFWP,≤ 0.25
8,ADNY,≤ 0.25
9,PKSC,≤ 0.25
10,DNFD,≤ 0.25
11,KMAV,≤ 0.25
12,SKLN,6.24
13,NMAL,≤ 0.25
14,NSRQ,≤ 0.25
15,HWID,≤ 0.25
16,FWTP,≤ 0.25
17,IKFS,≤ 0.25
18,EYWP,≤ 0.25
19,MLKQ,≤ 0.25
20,NGNH,≤ 0.25
21,QFTL,≤ 0.25
22,FGVP,≤ 0.25
23,PLHL,≤ 0.25
24,HNLK,≤ 0.25
25,RPAM,≤ 0.25

row,Variant,enrichment ratio
1,GRAR,≤ 0.25
2,DRYA,≤ 0.25
3,TDNE,≤ 0.25
4,GKGP,≤ 0.25
5,PKTW,≤ 0.25
6,ECVW,≤ 0.25
7,KQAH,0.881
8,SHFV,≤ 0.25
9,ATLN,17.9
10,WAWP,≤ 0.25
11,YTTQ,≤ 0.25
12,RHPG,≤ 0.25
13,QQKS,≤ 0.25
14,HAGW,≤ 0.25
15,RSFQ,≤ 0.25
16,AKFA,≤ 0.25
17,QAIM,≤ 0.25
18,GDET,≤ 0.25
19,EADM,≤ 0.25
20,WLCL,≤ 0.25
21,RLCR,≤ 0.25
22,NIRR,≤ 0.25
23,VPRT,≤ 0.25
24,WYYS,≤ 0.25
25,IEWP,≤ 0.25

row,Variant,enrichment ratio
1,WYAA,≤ 0.25
2,RIPQ,≤ 0.25
3,GPRD,≤ 0.25
4,HQFD,≤ 0.25
5,EHGA,≤ 0.25
6,LVKS,≤ 0.25
7,YMAH,≤ 0.25
8,DFVN,≤ 0.25
9,LKHW,≤ 0.25
10,PNDA,≤ 0.25
11,NLCH,≤ 0.25
12,TFSW,≤ 0.25
13,DTSG,≤ 0.25
14,DLLM,≤ 0.25
15,FRWP,≤ 0.25
16,AQCS,11.1
17,DWVA,≤ 0.25
18,QMLT,≤ 0.25
19,FMET,≤ 0.25
20,GSPG,≤ 0.25
21,RSME,≤ 0.25
22,NDTM,≤ 0.25
23,MMTS,≤ 0.25
24,VENG,≤ 0.25
25,CFFI,≤ 0.25

row,Variant,enrichment ratio
1,SNMT,8.85
2,FWFG,≤ 0.25
3,KASP,≤ 0.25
4,AQKP,≤ 0.25
5,SWDE,≤ 0.25
6,ELTE,≤ 0.25
7,QDRD,≤ 0.25
8,HWSL,≤ 0.25
9,YLYM,≤ 0.25
10,NFSQ,≤ 0.25
11,QLAV,≤ 0.25
12,AIYP,12.7
13,KKYP,≤ 0.25
14,IKKN,≤ 0.25
15,RFMF,≤ 0.25
16,INVK,≤ 0.25
17,FNVA,≤ 0.25
18,SFFH,≤ 0.25
19,HQSR,≤ 0.25
20,TSLQ,16.4
